In PubChem BioAssay AID1346428 (National Center for Advancing Translational Sciences (NCATS), 2018):
The campaign covered roughly 48,000 compounds. About 1,200 (2.5%) were called active. Roughly 2% stayed inconclusive and do not appear here.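 Rule for the calls: active = activation of at least 60% and not above a set upper limit (about 1 call in 100 departs from these limits); inconclusive = activation of 40% to 60%, or above that upper limit; inactive = activation under 40%.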 Some of the results follow.

Biological target: Probable G-protein coupled receptor 32 (Homo sapiens) (UniProt O75388)
Sequence of UniProt O75388 (O75388 whole entry, looked up): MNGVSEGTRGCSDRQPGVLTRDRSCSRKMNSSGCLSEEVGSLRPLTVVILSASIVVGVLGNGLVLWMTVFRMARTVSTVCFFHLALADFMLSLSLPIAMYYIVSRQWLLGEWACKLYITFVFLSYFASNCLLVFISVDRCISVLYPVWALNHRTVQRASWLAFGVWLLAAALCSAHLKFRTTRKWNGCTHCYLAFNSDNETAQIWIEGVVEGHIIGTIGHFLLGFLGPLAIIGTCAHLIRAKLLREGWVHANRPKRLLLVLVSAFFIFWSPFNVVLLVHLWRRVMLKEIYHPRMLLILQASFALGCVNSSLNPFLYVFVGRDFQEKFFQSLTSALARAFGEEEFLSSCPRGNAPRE
Experiment: qHTS for Agonists of Human Resolvin D1 Receptor DRV1; note: 0% is about no effect
Conditions: CHO-K1 GPR32 beta-arrestin PathHunter luminescence, 90 min; at 76.9 µM; hits give high values; zero percent set by DMSO-only wells
In short: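 Agonism was scored as beta-arrestin recruitment to ProLink-fused GPR32 in stably transfected CHO-K1 cells, giving a chemiluminescent beta-Gal signal; compounds were incubated 90 min at 37 °C.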

activation, inactive:
Cc1cccc(NC(=O)CCn2cnc3ccccc3c2=O)c1 -9.17%, CCOc1ccc(-n2nc3ccc(NC(=O)c4ccc(OC)c(Cl)c4)cc3n2)cc1 8.15%, Cc1cc(Nc2cccc(Cl)c2)nc2ccc(NC(=O)c3cncc(Br)c3)cc12 -26.4%, O=C(CC1N=C2c3ccccc3N=C(SCc3ccccc3Cl)N2C1=O)NCCc1ccccc1 (configuration not stated) -3.53%, CCCCn1c(=O)n(-c2cc(OC)ccc2OC)c(=O)c2c3c(sc21)CN(C(C)=O)CC3 -6.66%, COc1ccc(-n2nc(C(=O)Nc3cc(C)ccn3)c3c4ccccc4n(C)c3c2=O)cc1 -7.37%, CCC(C(=O)NCc1ccccc1OC)n1nc(C)n2c(cc3occc32)c1=O (configuration not stated) -20.3%, Cc1ccc2c(=O)cc(C(=O)Nc3sc4c(c3C(=O)NCC3CCCO3)CCC4)oc2c1 (configuration not stated) 7.69%, Cc1oc(-c2ccc(C(=O)NCc3ccccc3)cc2)nc1CN1CCc2ccccc21 -3.4%, COc1ccc(-c2nc3ccccc3s2)cc1NC(=O)c1ccccc1F -3.02%, O=C(Cc1cccs1)NC1CC(=O)N(c2ccc(F)cc2)C1 (configuration not stated) 0.987%, CSc1cccc(NC(=O)Nc2ccccc2OCc2cc(=O)n3cc(C)ccc3n2)c1 -15%, CCOCCCNC(=O)c1ccc(-n2c(-c3ccccc3)cc3c2CCC(C)C3)cc1 (configuration not stated) -36.2%, COc1ccc(-c2csc3ncnc(Nc4cccc(OC)c4)c23)cc1 -0.0939%, COc1ccc(C(=O)Nc2ccc3nc(SCC(=O)N4CCc5ccccc54)sc3c2)cc1 -5.32%, Cc1ccc2c(c1)C(c1ccc(F)cc1)N(C(=O)c1ccc(S(=O)(=O)N3CCCCC3)cc1)CC(=O)N2 (configuration not stated) -7.52%, CCC(=O)N1CCc2cc(Br)cc(S(=O)(=O)CCC(=O)N3CCN(c4cccc(C)c4)C(C)C3)c21 (configuration not stated) -13.2%, CCc1ccc(S(=O)(=O)Nc2ccc3c(c2)n(C)c(=O)c(=O)n3C)cc1 1.8%, O=C(NCc1ccc(Cl)cc1)NCc1noc2ccccc12 3.67%, COc1ccc(NC(=O)CCNS(=O)(=O)c2ccc3c(c2)CCCC(=O)N3)cc1Cl 13.1%, COc1ccc(-n2nc3cc(C)c(NC(=O)c4ccc(-c5ccc(Cl)cc5)o4)cc3n2)cc1 1.03%, Cc1cc(OCC(=O)Nc2cc(-c3nc4ncccc4o3)ccc2C)ccc1Cl 0.712%, COC(=O)c1ccccc1NC(=O)C1=CC(c2cccs2)=NS(=O)(=O)N1C -1.36%, Cc1ccc(S(=O)(=O)c2nnn(-c3ccc(F)c(Cl)c3)c2N)cc1 -10.9%, Cc1nn(CC(=O)Nc2ccc(OC(F)(F)F)cc2)c(=O)c2c(C)n(-c3ccc(Cl)cc3)nc12 -5.06%, Cc1cccc(C)c1Nc1c(-c2ccccn2)nc2c(C)cccn12 -34.4%, CCOc1ccc2nc(N3CCCC(C(=O)NCCc4ccc(OCC)c(OCC)c4)C3)sc2c1 (configuration not stated) -10.4%, COc1ccc(CCNC(=O)c2nc(-c3ccc(Cl)cc3)n3c2CCCCC3)c(OC)c1 -14.5%, Cc1ccc(C)c(N2CCN(S(=O)(=O)c3ccc4c(c3)C(C(C)C)C(=O)N4)CC2)c1 (configuration not stated) 33.1%, CSc1ncc(C(=O)NCc2ccccc2F)c(-c2ccccc2)n1 -3.97%, CCCc1ccc(OCC(=O)Nc2sc(C(=O)OCC)c(C)c2C(=O)OCC)cc1 -4.52%, CCc1ccccc1NS(=O)(=O)c1ccc2[nH]cc(C(=O)N(CC)Cc3ccccc3)c(=O)c2c1 -0.339%, COc1ccc(C2NC(=O)N(C)C3=C2C(=O)N(c2ccc(C(=O)O)cc2)C3)cc1 (configuration not stated) -8.42%, COc1ccc(OC)c(C2CC(=O)Nc3c2c(=O)[nH]c2ncnn32)c1 (configuration not stated) 16.2%, CCc1ccc(C2CC(=O)c3c([nH]c(C(=O)OC4CCCC4)c3C)C2)cc1 (configuration not stated) -5.22%, COc1cccc(-c2nc(CS(=O)(=O)CC(=O)N3CCN(c4cc(C)ccc4C)CC3)c(C)o2)c1 3.86%, CCOC(=O)c1ccc(CN(Cc2ccc(F)cc2)S(=O)(=O)c2ccc(F)c(C(=O)Nc3c(C)cccc3C)c2)cc1 -27.4%, CCc1ccc2occ(CC(=O)Nc3c(C(=O)c4ccc(C)cc4)oc4ccccc34)c2c1 5.69%, CCOc1ccc(NC(=O)Cn2c(=O)n(CCCCCC(=O)NCc3ccccc3)c(=O)c3sccc32)cc1 -3.22%, O=[N+]([O-])c1cccc(S(=O)(=O)NCCNS(=O)(=O)c2cccc([N+](=O)[O-])c2)c1 0.264%, COc1ccc(S(=O)(=O)Nc2c(C)nc3nc[nH]n3c2=O)cc1 -20.2%, Cc1cc(S(=O)(=O)C(CNC(=O)c2ccc(F)c(F)c2)c2cccs2)ccc1F (configuration not stated) -7.26%, Cc1cc(C)c2c(CC(=O)Nc3ccc(S(=O)(=O)Nc4nc(C)cc(C)n4)cc3)coc2c1 -3%, COc1ccc(CNC(=O)c2cc3cc(OC)ccc3oc2=O)cc1 -5.55%, Cc1ccc(S(=O)(=O)n2nc(-c3ccc(Cl)cc3)nc2NCc2ccc(F)cc2)cc1 -6.53%, CC(=O)N1CCCc2cc(S(=O)(=O)N3CCCC(C(=O)N4CCN(c5ccccc5)CC4)C3)ccc21 (configuration not stated) 16.5%, O=S(=O)(NCCc1csc2nc(-c3ccccc3)nn12)c1cc(F)ccc1F 12.4%, Cc1ccc(-c2ccc(=O)n(CC(=O)NCCc3ccccc3)n2)cc1 -11.1%, COc1ccc2c(c1)cc1c(=O)n(CC(=O)NC(C)CCc3ccccc3)nc(C)n12 (configuration not stated) -8.68%, CCCSCCCNC(=O)C1CCN(c2nc3ccccc3nc2C(F)(F)F)CC1 0.748%, CCCCn1cnc2cc(NCc3ccccc3Cl)ccc21 -67.9%, COc1ccc(-c2[nH]c(-c3ccc(Cl)cc3)nc2SCC(=O)NCC2CCCO2)cc1 (configuration not stated) -32.9%, Cc1cccc(/C=C/c2onc(C)c2S(=O)(=O)N2CCC(C(=O)N3CCCCC3)CC2)c1 -18.3%, Cc1ccc(NC(=O)C(=O)NCC(c2cccnc2)N2CCN(Cc3ccccc3)CC2)cc1F (configuration not stated) 19%, Cc1ccc(-n2ncc3c(Nc4cccc(C(=O)O)c4)ncnc32)cc1 -6.61%, O=C(CCS(=O)(=O)c1cc(Br)cc2c1N(C(=O)C1CC1)CC2)N1CCN(c2cccc(Cl)c2)CC1 -5.11%, COc1ccc(-c2nc3ccccc3n3c(-c4cccc(C)c4)c4c(=O)n(C)c(=O)n(C)c4c23)cc1OC -8.54%, CCC(C)NC(=O)c1c(C)oc2ncn(CC(C)C)c(=O)c12 (configuration not stated) -6.76%, CCC(=O)N1CCc2cc(S(=O)(=O)NC(C(=O)NCCc3ccc(OC)c(OC)c3)C(C)C)ccc21 (configuration not stated) -6.35%, Cc1cc(C)c(NC(=O)c2nc3ccccc3nc2N2CCCCC2)c(C)c1 4.08%, CCCCNC(=O)C1CCC(Cn2c(=O)c3sccc3n(Cc3ccccc3)c2=O)CC1 (configuration not stated) -1.73%, Nc1ccc(-c2ccc3ccccc3n2)cc1 10.2%, O=C(Cn1c(=O)n(CCc2ccccc2)c(=O)c2cccnc21)Nc1ccc(F)cc1 -9.65%, CCOc1ccccc1OCC1CNCCO1 (configuration not stated) -4.17%, COc1cc(NC(=O)C2CCN(C(=O)c3sc4nc[nH]c(=O)c4c3C)CC2)cc(OC)c1OC -10.5%, Cc1cc(C(=O)N2CCN(c3ccccc3)CC2)c2c(C)nn(-c3cccc(F)c3)c2n1 -11.2%, CCCCNC(=O)CSc1nc2cc3c(cc2c(=O)n1CCCC(=O)NCCc1ccc(OC)c(OC)c1)OCO3 -10.9%, Cc1ccc(N2C(=O)c3n[nH]c(C)c3C2c2ccc(Cl)cc2)cc1 (configuration not stated) 43.7%, Cc1ccc(NC(=O)Cn2nc(C(F)(F)F)c3c2CCCC3)cc1C 15%, Cc1cc(C)cc(NC(=O)CSc2oc(-c3ccccc3)nc2S(=O)(=O)c2ccc(Cl)cc2)c1 -10.6%, CCOC(=O)c1ccccc1NC(=O)Cn1ncc2c1-c1ccccc1OC2 -6.09%, CCOC(=O)c1[nH]c2c(c1Cc1ccccc1OC)C(=O)CC(c1ccc(OC)cc1)C2 (configuration not stated) -22.7%, Cc1ccccc1CSc1nnc2[nH]c(=O)cc(-c3ccccc3)n12 -0.66%, Cc1ccc(CNC(=O)c2nn(-c3ccc(Cl)cc3)nc2CO)cc1 -5.65%, CCc1ccc(-n2c(=O)c3c4c(sc3n(Cc3cc(=O)n5c(C)cccc5n3)c2=O)CCC4)cc1 -3.55%, CC(C)OCCCNC(=O)C(=O)Nc1c2c(nn1-c1ccccc1)CS(=O)(=O)C2 -15.4%, Cc1ccc2c(c1)N(CC(=O)NCCc1ccccc1)C(=O)CO2 6.95%, CCSc1ncc(Cl)c(C(=O)Nc2nnc(CC)s2)n1 11%, O=C(c1ccccc1F)N1c2ncnn2C2(CCCCC2)[C@@H]2CCCC[C@@H]21 -6.1%, Cc1cccc(Nc2nc(N)nc(N)c2S(=O)(=O)c2ccccc2)c1 39%, O=[N+]([O-])c1ccc2c(c1)S(=O)(=O)C=C2 -6.24%, Cc1c(C)n(Cc2ccc(F)cc2)c2ccc(C(=O)N3CCN(c4ccc(F)cc4)CC3)cc12 -30.1%
